The text below walks through data of PubChem BioAssay AID1645887 (National Center for Advancing Translational Sciences (NCATS), 2021).

Several values for one entry are separate records, joined by “and”; a condition that tells them apart may be missing. Equal values may be shown once. The campaign covered roughly 16,000 compounds. About 40 (0.2%) were called active. About 1% were inconclusive and are not listed. Calls come from the whole dose curve; as a rule, active = well fitted activation curve with a large enough effect; inconclusive = small, poorly fitted or top-dose-only effect, or another doubt; inactive = no such curve, though single readings can be large or run the other way. The list shows a part of the results.
% is set by controls: 0 for no effect and ±100 for the full control effect.

Sequence of UniProt Q8WZA2 (Q8WZA2 whole entry, looked up): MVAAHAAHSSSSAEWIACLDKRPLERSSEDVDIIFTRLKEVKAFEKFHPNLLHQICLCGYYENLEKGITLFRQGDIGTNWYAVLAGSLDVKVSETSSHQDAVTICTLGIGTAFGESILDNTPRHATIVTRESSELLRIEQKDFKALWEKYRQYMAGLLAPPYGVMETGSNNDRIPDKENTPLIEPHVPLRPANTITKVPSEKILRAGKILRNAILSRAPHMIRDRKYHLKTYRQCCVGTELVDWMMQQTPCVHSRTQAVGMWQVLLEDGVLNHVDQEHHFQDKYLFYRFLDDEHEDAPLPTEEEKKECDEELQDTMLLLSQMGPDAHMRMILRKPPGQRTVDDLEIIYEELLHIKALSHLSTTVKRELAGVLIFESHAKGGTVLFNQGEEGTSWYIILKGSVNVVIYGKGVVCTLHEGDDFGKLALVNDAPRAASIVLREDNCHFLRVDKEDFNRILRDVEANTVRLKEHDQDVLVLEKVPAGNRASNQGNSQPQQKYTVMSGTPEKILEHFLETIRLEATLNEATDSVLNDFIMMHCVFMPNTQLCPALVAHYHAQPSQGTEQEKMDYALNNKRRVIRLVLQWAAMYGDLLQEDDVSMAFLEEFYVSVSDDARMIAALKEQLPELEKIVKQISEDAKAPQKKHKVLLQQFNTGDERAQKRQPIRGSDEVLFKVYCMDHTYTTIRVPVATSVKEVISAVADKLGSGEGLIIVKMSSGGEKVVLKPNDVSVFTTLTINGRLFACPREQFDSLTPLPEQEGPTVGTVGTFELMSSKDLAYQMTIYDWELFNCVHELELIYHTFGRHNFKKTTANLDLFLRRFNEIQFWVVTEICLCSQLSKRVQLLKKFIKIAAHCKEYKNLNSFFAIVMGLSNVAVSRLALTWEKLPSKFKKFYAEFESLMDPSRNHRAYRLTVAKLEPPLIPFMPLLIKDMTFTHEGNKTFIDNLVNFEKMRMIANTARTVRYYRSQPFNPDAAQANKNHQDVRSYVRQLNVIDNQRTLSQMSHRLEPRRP

This experiment concerns the target Rap guanine nucleotide exchange factor 4 (Homo sapiens) (UniProt Q8WZA2). Kind of experiment: Validation qHTS for agonist of cAMP-regulated guanine nucleotide exchange factor 4 (EPAC2).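 Note: exchange makes BODIPY-GDP fluorescence drop when released from Rap1B; series mostly up to about 150 µM.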 The following applies: EPAC2 Rap1B BODIPY-GDP exchange, fluorescence; activation: stronger effect = higher value. A digest of the protocol:
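Signal normalized against 6.5 mM cAMP as agonist control. Mix of EPAC2 (100 nM), RAP1B-BODIPY-GDP (250 nM) and GDP (50 uM) was read kinetically at 480/540 nm, every 5 min over 30 min, after 5 min room-temperature incubation with compound.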
(In general: In qHTS, concentration-response curves come from the screen itself.)
Take `CC(=O)NCCNc1cc(-c2ccccc2C(F)(F)F)ncn1`: the activation was inactive: -13%.

As for `CCCCCCCCCCCC[n+]1ccc(/C=C/c2c[nH]c3ccccc23)c2ccccc21`, the activation was inactive: -60.9%.

Regarding `CC(=O)[C@]1(O)CCC2C3CCC4=CC(=O)CC[C@@]4(C)C3CC[C@]21C` (some centres undefined), the activation was inactive: -19%.

As to `Cc1cnc(SCc2ccccn2)nc1C1CCCN(C(=O)c2coc3c2C(=O)CCC3)C1` (centres undefined), the activation was inactive: -0.704%.

For the molecule `Cc1ccc2nc(/C=C/c3ccc(N(C)C)cc3)ccc2c1`, the activation is inactive: -19.2%.

As to `COc1ccc(-c2nc3cnc(N4CCN(C)CC4)nc3n(CCC#N)c2=O)cc1`, the activation was inactive: 2.65%.

On to `CN(C)C(=O)c1ccc(-c2nc(NCc3ccccc3)c3ccccc3n2)cc1`, for which the activation is inactive: -15.5%.

As to `COc1ccc(CN2CCC3(CC2)c2ccccc2[C@@H](NC(=O)c2ccccc2)[C@@H]3O)cc1O`, the activation is inactive: 3.4%.

As for `COc1ccc(CNc2ncnc3ccc(-c4cccnc4)cc23)c(OC)c1`, the activation is inactive: -16.3%.

For the molecule `Cc1ccc(=O)n(-c2ccccc2)c1`, the activation was inactive: -7.66% and inactive: 8.46% and inactive: -28.9%.

With `COC1=CC(=O)C(C(=O)c2ccccc2)=CC1=O`, the activation is inactive: -9.46%.

Regarding `COc1ccc2[nH]cc(CCNc3ncncc3-c3ccc(C(=O)N(C)C)cc3)c2c1`, the activation was inactive: -19.4%.

As for `COc1cccc(-c2nc(N(C)C)c3ccccc3n2)c1`, the activation was inactive: -2.76%.

In the case of `COc1ccc(S[C@@H](CCN2CC[C@H](C)CCC2=O)c2ccccc2)cc1`, the activation was inactive: -18.7%.

Consider `C=C1C[C@]23C[C@@]1(O)CC[C@H]2[C@@]12C=C[C@H](O)C(C)(C(=O)O1)[C@H]2[C@@H]3CC(=O)O`, for which the activation is inactive: -3.39%.

`COc1ccccc1CNc1ncncc1-c1cccnc1`: the activation was inactive: -8.93%.

`COc1ccccc1-c1ccnc(-n2ncc(C(=O)NC(c3cccnc3)C(F)(F)F)c2C)n1` (centres undefined): the activation was inactive: -10.8%.

`CCNc1ncc2nc(-c3ccc(Cl)cc3)c(=O)n(Cc3cccs3)c2n1`: the activation is inactive: -11.1%.

Turning to `COc1ccccc1C(=O)N[C@@H]1c2ccccc2C2(CCN(C(=O)c3csnn3)CC2)[C@H]1OC`, the activation is inactive: -15.3%.

On to `CC(C)C[C@H](NC(=O)C1OC1C(=O)O)C(=O)NCCCCN=C(N)N` (some centres undefined), for which the activation is inactive: -51.2%.

As for `COc1ccccc1N1CCN(CCN(C(=O)c2ccc(F)cc2)c2ccccn2)CC1`, the activation is inactive: -20.9%.

As to `c1ccc(-c2ccccn2)nc1`, the activation was inactive: -28.3%.

For the molecule `CC1(C)O[C@@H]2C[C@H]3[C@@H]4CCC5=CC(=O)C=C[C@]5(C)[C@H]4[C@@H](O)C[C@]3(C)[C@]2(C(=O)CO)O1`, the activation was inactive: -19.5%.

In the case of `O=C(O)Cc1cc(I)c(Oc2cc(I)c(O)c(I)c2)c(I)c1`, the activation was inactive: -8.12%.

Turning to `CC(=O)N1CCC2(CC1)CCN(c1ccccc1)CC2`, the activation was inactive: -24%.

On to `CNc1nc(-c2ccccc2OC)nc2ccccc12`, for which the activation is inactive: -12.2%.

`OCC(O)CO`: the activation is inactive: -2.55%.

Take `COc1ccccc1-c1nccc(NC2CCNCC2)n1`: the activation was inactive: -9.82%.

`CCN(CC)CCOc1ccc2c(c1)C(=O)c1cc(OCCN(CC)CC)ccc1-2`: the activation was inactive: -6.88%.

As for `CC/C(=C\c1ccc(C(=O)OC)cc1)c1cc(OC)cc2oc3ccccc3c12`, the activation is inactive: -11.3%.

Regarding `CCS(=O)(=O)NCc1c(C)ncc2c1CCN(C(=O)c1csc(-c3cccs3)n1)C2`, the activation is inactive: 0.958%.

`Oc1ccc(Cn2cc[nH]c2=S)cc1`: the activation was inactive: -8.7%.

With `C=C[C@H](CC(C)C)N(Cc1ccccc1)S(=O)(=O)N(Cc1ccccc1)[C@@H](C=C)CC(C)C`, the activation is inactive: -16.1%.

In the case of `COc1ccc(-c2ccnc(-n3ncc(C(=O)NC(C)(C)CO)c3C3CC3)n2)cc1F`, the activation was inactive: 3.72%.

For the molecule `CCCCC/C=C\C\C=C/C=C/C=C/[C@@H](SC[C@H](N)C(=O)NCC(=O)O)[C@@H](O)CCCC(=O)O`, the activation was inactive: 3.04%.

With `CCC1CN(CCNC(=O)c2cn3cc(C)ccc3n2)Cc2cc(OC)ccc2O1` (centres undefined), the activation was inactive: 4.6%.

In the case of `Nc1ccn([C@@H]2O[C@H](CO)[C@@H](O)C2O)c(=O)n1` (some centres undefined), the activation is inactive: -4.27% and inactive: -49.3%.

Take `CN1CCN(c2ccnc(-c3ccoc3)n2)CC1`: the activation was inactive: 4.77%.

As for `COc1cc(OC)c2c(=O)c(-c3ccccc3)coc2c1`, the activation is inactive: 5.29%.

Consider `COCC(=O)N1CCC2(CC1)CN(c1ccccn1)C2`, for which the activation is inactive: 2.25%.

For `COC(=O)c1cccc(C(=O)N2CCc3c(cnc(C)c3CNC(=O)/C=C/c3cccs3)C2)c1`, the activation was inactive: -10.5%.

Turning to `COc1ccccc1CNc1cc(-c2ccccc2C(F)(F)F)ncn1`, the activation is inactive: -0.505%.

For `Cc1cc(C)c(NC(=O)C[C@H](CC(=O)O)c2cccc3ccccc23)c(C(=O)N2CCC3(CCCC3)CC2)c1`, the activation was inactive: -14.9%.

As for `CC(C)CCCC(C)C1CCC2C3CC=C4CC(O)CC[C@@]4(C)C3CC[C@@]12C` (some centres undefined), the activation is inactive: -4.19%.

For `CC(C)ON([C@@H](C(=O)NO)C(C)C)S(=O)(=O)c1ccc(-c2ccccc2)cc1`, the activation is inactive: -28.3%.

On to `CN(C)c1ncc2nc(-c3cccs3)c(=O)n(-c3ccccc3)c2n1`, for which the activation was inactive: 18.3%.

Turning to `CCc1ccc2c(-c3cccc(Cl)c3)nc(=O)n(CC)c2n1`, the activation is inactive: -4.25% and inactive: -2.78%.

For `O=C(CCCCCCC(=O)Nc1ccccc1)NO`, the activation was inactive: -4.55% and inactive: -1.89%.

In the case of `CCCCCCCN(c1ccccc1)C1C[C@H]2CCCC(=O)N3CC[C@@H](C1)[C@@H]23` (some centres undefined), the activation was inactive: -31.5%.

Take `Cc1cccc(C(=O)NCC2Cc3cc(F)cc(-c4cnccn4)c3O2)n1` (centres undefined): the activation is inactive: -18.7%.

Turning to `CCOC(=O)C[C@H]1c2cc(F)ccc2S(=O)(=O)N1Cc1cc(OC)c(OC)c(OC)c1`, the activation is inactive: -26.5%.

Take `CCC1OC(=O)C(C)[C@@H](O[C@H]2C[C@@](C)(OC)C(O)C(C)O2)C(C)[C@@H](O[C@@H]2OC(C)CC(N(C)C)C2O)[C@@](C)(O)CC(C)C2NC(COCCOC)O[C@H](C2C)[C@@]1(C)O` (some centres undefined): the activation is inactive: -15.6%.

Take `NC[C@H]1O[C@H](O[C@H]2[C@H](O)[C@@H](O[C@H]3O[C@H](CO)[C@@H](O)[C@H](N)[C@H]3O)[C@H](N)C[C@@H]2N)[C@H](O)[C@@H](O)[C@@H]1O`: the activation was inactive: 1.43%.

For `COc1cccc(-c2cncnc2NCc2ccccc2)c1`, the activation is inactive: -25.9%.

Regarding `c1cnc2cc3c(cc2n1)C1CNCC3C1`, the activation was inactive: -7.12%.

Consider `CC[C@H]1OC(=O)C[C@@H](O)[C@H](C)[C@@H](O[C@@H]2O[C@H](C)[C@@H](O[C@H]3C[C@@](C)(O)[C@@H](O)[C@H](C)O3)[C@H](N(C)C)[C@H]2O)[C@@H](CC=O)C[C@@H](C)C(=O)/C=C/C(C)=C/[C@@H]1CO[C@@H]1O[C@H](C)[C@@H](O)[C@@H](OC)[C@H]1OC`, for which the activation was inactive: -5.32% and inactive: -4.91%.

As for `CCO[C@H](Cc1ccc(OCCc2ccc(OS(C)(=O)=O)cc2)cc1)C(=O)O`, the activation was inactive: 4.33%.

For the molecule `COc1cc(O)ccc1CN1CCc2nnc(C(C)NC(=O)c3cc(F)ccc3F)n2CC1` (centres undefined), the activation was inactive: -11.1%.

With `COc1ccccc1-c1ccnc(-n2ncc(C(=O)N3CCCCC3c3cccnc3)c2C)n1` (centres undefined), the activation was inactive: -4.5%.

`Cc1ccc(NC(=O)c2cccc(N(C)C)c2)cc1NC(=O)c1ccc(O)cc1`: the activation was inactive: -22.2% and inactive: 2.43% and inactive: -9.05%.

For `C[C@]12C[C@H](O)[C@H]3[C@@H](CCC4=CC(=O)CC[C@@]43C)[C@@H]1CC[C@@H]2C(=O)CO`, the activation was inactive: -5.78% and inactive: -24.9%.

As for `CN1C(=O)CCC1c1cccnc1` (centres undefined), the activation was inactive: -21.8% and inactive: 7.55%.

In the case of `O=S1(=O)CCOC[C@H](CC2CCCCC2)N1Cc1ccccc1F`, the activation is inactive: -21.2%.

Turning to `NC(=O)OC[C@@H]1[C@H](NC(=O)/C(=N\OCC(=O)O)c2csc(N)n2)C(=O)N1S(=O)(=O)O`, the activation was inactive: 2.3%.

On to `Cc1ccnc(N)c1`, for which the activation is inactive: -11.5%.

Turning to `O=C(CCN1CCN(CCO)CC1)N1c2ccccc2Sc2ccc(C(F)(F)F)cc21`, the activation was inactive: 2.25%.

`COc1cc(-c2noc(C)c2C(=O)NCCc2c[nH]c3ccccc23)cc(OC)c1OC`: the activation was inactive: -28.3%.

For the molecule `CN(C)C(=O)c1ccc(-c2ccc3ncnc(N(C)Cc4ccco4)c3c2)cc1`, the activation was inactive: -7.43%.

Turning to `COc1ncc2nc(-c3ccc(Cl)cc3)c(=O)n(C)c2n1`, the activation is inactive: 12.9%.

On to `Cc1oc(-c2cccc(NC(=O)C3CCCN(C)C3)c2)nc1CNC(=O)c1coc2c1C(=O)CCC2` (centres undefined), for which the activation is inactive: -1.86%.

As for `CCCCC(CC)COC(=O)C(C#N)=C(c1ccccc1)c1ccccc1` (centres undefined), the activation is inactive: 19.5%.

Take `CCCC[C@H]1COCCS(=O)(=O)N1Cc1cccc([N+](=O)[O-])c1`: the activation was inactive: -9%.

Regarding `Nc1ncnc2c1ncn2[C@@H]1O[C@H](COP(=O)(O)OP(=O)(O)O)[C@@H](O)[C@H]1O`, the activation is inactive: 10.5% and inactive: 12.2%.

As for `CC1CCC(C(C)C)[C@H](OC(=O)c2ccccc2)C1` (some centres undefined), the activation was inactive: 0.156%.

Regarding `O=c1cc(-c2ccccc2)oc2cc(O)cc(O)c12`, the activation was inactive: -3.99% and inactive: -17.6% and inactive: -16.4%.

`c1csc(CNc2ncnc3ccc(-c4ccc5c(c4)OCO5)cc23)c1`: the activation was inactive: -3.98%.

Take `CC1CN(CCC(=O)NC(c2cccnc2)C(F)(F)F)Cc2cc(Cl)ccc2O1` (centres undefined): the activation was inactive: 0.0876%.

As for `CCOC(=O)C[C@H]1c2cc(F)ccc2S(=O)(=O)N1C1CCCC1`, the activation was inactive: -9.78%.

Regarding `CCN(Cc1ccncc1)Cc1ccc2c(c1)CN(C(=O)c1cccc3c(C)c(C)[nH]c13)CCO2`, the activation is inactive: -7.98%.
